# In the supplement of paper PMC8728848:
# The list shows a part of the results.
# B1: Mermaid3 (Stilbonema majum) (protein)
# chain: MGSSHHHHHHSSGLVPRGSHMAASGWLRSPQGTVVKLYRRSLSWSKADEFCKDVDGRLVVDRTADMHLFLIKNVLKEKKSRVWVGLRRTASHSRTWIWSDGTRQNEGDLDANLWLRDEPNDAAGEEECALFMYSPWEKAWGLNDYLCRGGCRNYQFICEKWIR
# Assays:
# Test in all cases: glycan array binding signal (z-score within array); higher = stronger binding
# Details in all cases: glycan notation: IUPAC condensed, linker removed
# [1] = molecular target: Gal(b1-3)GlcNAc(b1-2)Man(a1-3)[Gal(b1-3)GlcNAc(b1-2)Man(a1-6)]Man(b1-4)GlcNAc(b1-4)[Fuc(a1-6)]GlcNAc
# Summary of the method: (§1)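 The binding signal is a Z-score computed within each array and averaged over linkers. Arrays of the same protein sequence at different concentrations or buffers were also averaged together. Data originate from 3228 arrays in the Consortium for Functional Glycomics database, kept only where the protein sequence was available.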
# [2] = molecular target: Gal(b1-3)GlcNAc(b1-2)Man(a1-3)[GlcNAc(b1-4)][Gal(b1-3)GlcNAc(b1-2)Man(a1-6)]Man(b1-4)GlcNAc(b1-4)GlcNAc
# Summary of the method: as §1
# [3] = molecular target: Gal(b1-3)GlcNAc(b1-2)[Gal(b1-3)GlcNAc(b1-6)]Man(a1-6)[Gal(b1-3)GlcNAc(b1-2)Man(a1-3)]Man(b1-4)GlcNAc(b1-4)GlcNAc
# Summary of the method: as §1
# [4] = molecular target: Gal(b1-3)GlcNAc(b1-3)Gal(b1-3)GlcNAc
# Summary of the method: as §1
# [5] = molecular target: Gal(b1-3)GlcNAc(b1-3)Gal(b1-4)Glc
# Summary of the method: as §1
# [6] = molecular target: Gal(b1-3)GlcNAc(b1-3)Gal(b1-4)GlcNAc
# Summary of the method: as §1
# [7] = molecular target: Gal(b1-3)GlcNAc(b1-3)Gal(b1-4)GlcNAc(b1-2)Man(a1-3)[Gal(b1-3)GlcNAc(b1-3)Gal(b1-4)GlcNAc(b1-2)Man(a1-6)]Man(b1-4)GlcNAc(b1-4)GlcNAc
# Summary of the method: as §1
# [8] = molecular target: Gal(b1-3)GlcNAc(b1-3)Gal(b1-4)GlcNAc(b1-2)[Gal(b1-3)GlcNAc(b1-3)Gal(b1-4)GlcNAc(b1-6)]Man(a1-6)[Gal(b1-3)GlcNAc(b1-3)Gal(b1-4)GlcNAc(b1-2)Man(a1-3)]Man(b1-4)GlcNAc(b1-4)[Fuc(a1-6)]GlcNAc
# Summary of the method: as §1
# [9] = molecular target: Gal(b1-3)GlcNAc(b1-3)Gal(b1-4)GlcNAc(b1-3)Gal(b1-4)GlcNAc(b1-2)[Gal(b1-3)GlcNAc(b1-3)Gal(b1-4)GlcNAc(b1-3)Gal(b1-4)GlcNAc(b1-6)]Man(a1-6)[Gal(b1-3)GlcNAc(b1-3)Gal(b1-4)GlcNAc(b1-3)Gal(b1-4)GlcNAc(b1-2)Man(a1-3)]Man(b1-4)GlcNAc(b1-4)[Fuc(a1-6)]GlcNAc
# Summary of the method: as §1
# [10] = molecular target: Gal(b1-3)GlcNAc(b1-3)Gal(b1-4)GlcNAc(b1-6)[Gal(b1-3)GlcNAc(b1-3)]Gal(b1-4)Glc
# Summary of the method: as §1
# [11] = molecular target: Gal(b1-3)GlcNAc(b1-3)Gal(b1-4)[Fuc(a1-3)]GlcNAc
# Summary of the method: as §1
# [12] = molecular target: Gal(b1-3)GlcNAc(b1-3)Gal(b1-4)[Fuc(a1-3)]GlcNAc(b1-6)[Gal(b1-3)GlcNAc(b1-3)]Gal(b1-4)Glc
# Summary of the method: as §1
# [13] = molecular target: Gal(b1-3)GlcNAc(b1-3)GalNAc
# Summary of the method: as §1
# [14] = molecular target: Gal(b1-3)GlcNAc(b1-6)Gal(b1-4)GlcNAc
# Summary of the method: as §1
# [15] = molecular target: Gal(b1-3)GlcNAc(b1-6)GalNAc
# Summary of the method: as §1
# [16] = molecular target: Gal(b1-3)GlcNAc(b1-6)[Gal(b1-3)]GalNAc
# Summary of the method: as §1
# [17] = molecular target: Gal(b1-3)GlcNAc6S
# Summary of the method: as §1
# [18] = molecular target: Gal(b1-3)[Fuc(a1-4)]GlcNAc
# Summary of the method: as §1
# [19] = molecular target: Gal(b1-3)[Fuc(a1-4)]GlcNAc(b1-2)Man
# Summary of the method: as §1
# [20] = molecular target: Gal(b1-3)[Fuc(a1-4)]GlcNAc(b1-2)Man(a1-3)[Gal(b1-3)[Fuc(a1-4)]GlcNAc(b1-2)Man(a1-6)]Man(b1-4)GlcNAc(b1-4)[Fuc(a1-6)]GlcNAc
# Summary of the method: as §1
# [21] = molecular target: Gal(b1-3)[Fuc(a1-4)]GlcNAc(b1-3)Gal(b1-3)[Fuc(a1-4)]GlcNAc
# Summary of the method: as §1
# [22] = molecular target: Gal(b1-3)[Fuc(a1-4)]GlcNAc(b1-3)Gal(b1-4)[Fuc(a1-3)]GlcNAc
# Summary of the method: as §1
# [23] = molecular target: Gal(b1-3)[Fuc(a1-4)]GlcNAc(b1-6)GalNAc
# Summary of the method: as §1
# [24] = molecular target: Gal(b1-3)[GlcNAc(b1-6)]GalNAc
# Summary of the method: as §1
# [25] = molecular target: Gal(b1-3)[Neu5Ac(a2-6)]GalNAc
# Summary of the method: as §1
# [26] = molecular target: Gal(b1-3)[Neu5Ac(a2-6)]GlcNAc(b1-4)Gal(b1-4)Glc
# Summary of the method: as §1
# [27] = molecular target: Gal(b1-3)[Neu5Ac(b2-6)]GalNAc
# Summary of the method: as §1
# [28] = molecular target: Gal(b1-4)Gal
# Summary of the method: as §1
# [29] = molecular target: Gal(b1-4)GalNAc(a1-3)[Fuc(a1-2)]Gal(b1-4)GlcNAc
# Summary of the method: as §1
# [30] = molecular target: Gal(b1-4)GalNAc(b1-3)[Fuc(a1-2)]Gal(b1-4)GlcNAc
# Summary of the method: as §1
# [31] = molecular target: Gal(b1-4)Glc
# Summary of the method: as §1
# [32] = molecular target: Gal(b1-4)Glc6S
# Summary of the method: as §1
# [33] = molecular target: Gal(b1-4)GlcNAc
# Summary of the method: as §1
# [34] = molecular target: Gal(b1-4)GlcNAc(a1-6)Gal(b1-4)GlcNAc
# Summary of the method: as §1
# [35] = molecular target: Gal(b1-4)GlcNAc(b1-2)Man
# Summary of the method: as §1
# [36] = molecular target: Gal(b1-4)GlcNAc(b1-2)Man(a1-3)Man(b1-4)GlcNAc(b1-4)GlcNAc
# Summary of the method: as §1
# [37] = molecular target: Gal(b1-4)GlcNAc(b1-2)Man(a1-3)[Gal(b1-4)GlcNAc(b1-2)Man(a1-6)]Man(b1-4)GlcNAc(b1-4)GlcNAc
# Summary of the method: as §1
# [38] = molecular target: Gal(b1-4)GlcNAc(b1-2)Man(a1-3)[Gal(b1-4)GlcNAc(b1-2)Man(a1-6)]Man(b1-4)GlcNAc(b1-4)[Fuc(a1-6)]GlcNAc
# Summary of the method: as §1
# [39] = molecular target: Gal(b1-4)GlcNAc(b1-2)Man(a1-3)[Gal(b1-4)GlcNAc(b1-2)Man(a1-6)][Gal(b1-4)GlcNAc(b1-4)]Man(b1-4)GlcNAc(b1-4)[Fuc(a1-6)]GlcNAc
# Summary of the method: as §1
# [40] = molecular target: Gal(b1-4)GlcNAc(b1-2)Man(a1-3)[Gal(b1-4)GlcNAc(b1-2)Man(a1-6)][GlcNAc(b1-4)]Man(b1-4)GlcNAc(b1-4)[Fuc(a1-6)]GlcNAc
# Summary of the method: as §1
# [41] = molecular target: Gal(b1-4)GlcNAc(b1-2)Man(a1-3)[GlcNAc(b1-2)Man(a1-6)]Man(b1-4)GlcNAc(b1-4)GlcNAc
# Summary of the method: as §1
# [42] = molecular target: Gal(b1-4)GlcNAc(b1-2)Man(a1-3)[GlcNAc(b1-4)][Gal(b1-4)GlcNAc(b1-2)Man(a1-6)]Man(b1-4)GlcNAc(b1-4)GlcNAc
# Summary of the method: as §1
# [43] = molecular target: Gal(b1-4)GlcNAc(b1-2)Man(a1-3)[Man(a1-6)]Man(b1-4)GlcNAc(b1-4)GlcNAc
# Summary of the method: as §1
# [44] = molecular target: Gal(b1-4)GlcNAc(b1-2)Man(a1-6)Man(b1-4)GlcNAc(b1-4)GlcNAc
# Summary of the method: as §1
# [45] = molecular target: Gal(b1-4)GlcNAc(b1-2)Man(a1-6)[GlcNAc(b1-2)Man(a1-3)]Man(b1-4)GlcNAc(b1-4)GlcNAc
# Summary of the method: as §1
binder,measurement,setting,value
B1,glycan array binding signal (z-score),[1],-0.057
same,glycan array binding signal (z-score),[2],0.005
same,glycan array binding signal (z-score),[3],0.317
same,glycan array binding signal (z-score),[4],-0.164
same,glycan array binding signal (z-score),[5],-0.458
same,glycan array binding signal (z-score),[6],-0.698
same,glycan array binding signal (z-score),[7],-0.35
same,glycan array binding signal (z-score),[8],1.22
same,glycan array binding signal (z-score),[9],5.6
same,glycan array binding signal (z-score),[10],-0.577
same,glycan array binding signal (z-score),[11],-0.358
same,glycan array binding signal (z-score),[12],-0.423
same,glycan array binding signal (z-score),[13],-0.339
same,glycan array binding signal (z-score),[14],-0.045
same,glycan array binding signal (z-score),[15],-0.286
same,glycan array binding signal (z-score),[16],0.038
same,glycan array binding signal (z-score),[17],-0.646
same,glycan array binding signal (z-score),[18],-0.265
same,glycan array binding signal (z-score),[19],0.676
same,glycan array binding signal (z-score),[20],0.655
same,glycan array binding signal (z-score),[21],-0.634
same,glycan array binding signal (z-score),[22],-0.384
same,glycan array binding signal (z-score),[23],-0.266
same,glycan array binding signal (z-score),[24],-0.523
same,glycan array binding signal (z-score),[25],-0.57
same,glycan array binding signal (z-score),[26],-0.544
same,glycan array binding signal (z-score),[27],-0.753
same,glycan array binding signal (z-score),[28],6.72
same,glycan array binding signal (z-score),[29],-0.207
same,glycan array binding signal (z-score),[30],0.176
same,glycan array binding signal (z-score),[31],-0.176
same,glycan array binding signal (z-score),[32],-0.269
same,glycan array binding signal (z-score),[33],-0.633
same,glycan array binding signal (z-score),[34],-0.542
same,glycan array binding signal (z-score),[35],0.091
same,glycan array binding signal (z-score),[36],-0.771
same,glycan array binding signal (z-score),[37],-0.555
same,glycan array binding signal (z-score),[38],0.34
same,glycan array binding signal (z-score),[39],-0.507
same,glycan array binding signal (z-score),[40],-0.671
same,glycan array binding signal (z-score),[41],-0.676
same,glycan array binding signal (z-score),[42],-0.656
same,glycan array binding signal (z-score),[43],3.26
same,glycan array binding signal (z-score),[44],-0.602
same,glycan array binding signal (z-score),[45],-0.554
